Hit rate of the full screen: of about 39,000 compounds, about 220 (0.56%) showed activity. The list shows a part of the results.
Each compound was assayed on Escherichia coli K-12 BW25113 (assay: relative growth (OD600 normalised to plate interquartile mean) (fraction); higher = less growth inhibition, active = 0.2 or less). Conditions: 50 µM; LB; incubation time: overnight (16-24 h).
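Further: static incubation at 37 °C against the wild-type strain, values averaged over two biological replicates.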

| SMILES | relative growth |
| --- | --- |
| CCCCCCCCCCCCCCCCOc1nc2ccc(C)cc2c(=O)o1 | inactive: 1.02 |
| C[C@@H]1CN([C@@H](C)CO)C(=O)c2cccc(NS(=O)(=O)c3ccc(Cl)cc3)c2O[C@@H]1CN(C)S(C)(=O)=O | inactive: 0.962 |
| O=C(N1CCOCC1)[C@@]1(CCS(=O)(=O)c2ccccc2)COC(c2ccc(OCCCO)cc2)=N1 | inactive: 0.941 |
| O=C(Nc1cccc2cccnc12)[C@@H]1[C@H](c2ccc(Br)cc2)CC(=O)N1c1ccc(C(F)(F)F)cc1 | inactive: 1.03 |
| C[C@@H]1CN([C@H](C)CO)C(=O)Cc2cc(NC(=O)c3ccncc3)ccc2O[C@H]1CN(C)S(=O)(=O)c1ccccc1 | inactive: 0.973 |
| COc1cccc(NC(=O)N[C@H]2CC[C@@H](CC(=O)N3CCN(C)CC3)O[C@@H]2CO)c1 | inactive: 0.986 |
| CC(=O)N(C)C[C@H]1Oc2ncc(C#C[C@H](C)O)cc2C(=O)N([C@H](C)CO)C[C@@H]1C | inactive: 0.98 |
| C[C@@H]1CN([C@H](C)CO)C(=O)c2cccc(NC(=O)C3CCOCC3)c2O[C@@H]1CN(C)C(=O)Nc1ccccc1 | inactive: 1 |
| Cc1noc(C)c1NC(=O)Nc1ccc2c(c1)C(=O)N([C@@H](C)CO)C[C@@H](C)[C@H](CN(C)C(=O)Nc1cccc3ccccc13)OCCCC[C@@H](C)O2 | inactive: 0.989 |
| C[C@@H]1CN([C@@H](C)CO)C(=O)Cc2cc(NC(=O)CCC(F)(F)F)ccc2O[C@H]1CN(C)Cc1ccc(C(F)(F)F)cc1 | inactive: 1.01 |
| C[C@@H]1CN([C@H](C)CO)C(=O)c2cc(NC(=O)Nc3ccc4c(c3)OCO4)ccc2O[C@H]1CN(C)Cc1ccc(C(F)(F)F)cc1 | inactive: 0.98 |
| C[C@@H]1CN([C@@H](C)CO)C(=O)c2cc(NC(=O)c3ccncc3)ccc2O[C@@H](C)CCCCO[C@@H]1CN(C)S(C)(=O)=O | inactive: 0.996 |
| Nc1nc(/C(=C/CC(=O)O)C(=O)N[C@@H]2C(=O)N3C(C(=O)O)=CCS[C@H]23)cs1 | inactive: 1.01 |
| C=CCOC(=O)[C@H]1[C@@H]2C(=O)O[C@@H](c3ccccc3)[C@@H](c3ccccc3)N2[C@@H](c2ccc(OCCOC(=O)[C@H]3C[C@H]4C(=O)N5CCC[C@H]5C(=O)N4[C@H]3c3ccc(O)cc3)cc2)[C@]12C(=O)Nc1ccccc12 | inactive: 1.07 |
| Cc1ccc(S(=O)(=O)N(C)C[C@@H]2Oc3cc(C#Cc4ccncc4)ccc3S(=O)(=O)N([C@@H](C)CO)C[C@H]2C)cc1 | inactive: 1.02 |
| C[C@@H]1CN([C@@H](C)CO)S(=O)(=O)c2ccc(C#Cc3ccccc3)cc2O[C@@H]1CN(C)S(C)(=O)=O | inactive: 1.05 |
| COc1ccc(NC(=O)Nc2ccc3c(c2)C(=O)N([C@H](C)CO)C[C@@H](C)[C@H](CN(C)Cc2ccc(C(F)(F)F)cc2)O3)cc1 | inactive: 0.976 |
| COc1cnc(SC)n(C)c1=O | inactive: 0.913 |
| CO[C@H]1CN(C)C(=O)c2ccc(NC(=O)Nc3cccc(Cl)c3)cc2OC[C@H](C)N(C(=O)Nc2c(C)noc2C)C[C@@H]1C | inactive: 0.988 |
| CN1C(=O)c2cc(NC(=O)C3CCOCC3)ccc2OC[C@H]2O[C@H](CC(=O)NCc3ccc4c(c3)OCO4)CC[C@@H]21 | inactive: 0.981 |

| SMILES | relative growth |
| --- | --- |
| CC(=O)OC1CCC2(C)C(CCC3(C)C2C2OC2C24OC(=O)C5(CCC(C)C(C)C52)CCC34C)C1(C)C (stereo not drawn) | inactive: 0.925 |
| C[C@@H]1CN([C@@H](C)CO)C(=O)c2cc(Br)cnc2O[C@@H]1CN(C)C(=O)CN1CCOCC1 | inactive: 1.03 |
| Cc1noc(C)c1S(=O)(=O)N(C)C[C@H]1Oc2ccc(NS(=O)(=O)c3ccc(Cl)cc3)cc2CC(=O)N([C@H](C)CO)C[C@H]1C | inactive: 0.996 |
| C[C@@H]1CN([C@@H](C)CO)C(=O)c2cc(NC(=O)CCCN(C)C)ccc2O[C@H]1CN(C)S(=O)(=O)c1ccccc1 | inactive: 1 |
| CCOP(=O)(CC(=O)O[C@H]1[C@@H]2OC(=O)[C@@H](Cc3ccc4ccccc4c3)C/C=C\C[C@H](Cc3ccc4ccccc4c3)C(=O)O[C@H]2[C@@H](OC)O[C@@H]1COC(=O)NCCCCCC(=O)NO)OCC | inactive: 0.881 |
| C[C@@H]1CN([C@@H](C)CO)C(=O)c2cc(NC(=O)Nc3ccc(C(F)(F)F)cc3)ccc2O[C@@H](C)CCCCO[C@@H]1CN(C)Cc1ccncc1 | inactive: 1.01 |
| COc1ccc(CN(C)C[C@@H]2OCCCC[C@H](C)Oc3ccc(NC(=O)Nc4ccc(OC)cc4)cc3C(=O)N([C@H](C)CO)C[C@@H]2C)cc1 | inactive: 1.03 |
| COc1ccc(S(=O)(=O)Nc2ccc3c(c2)C(=O)N([C@H](C)CO)C[C@H](C)[C@H](CN(C)Cc2ccc(C(F)(F)F)cc2)OCCCC[C@H](C)O3)cc1 | inactive: 1.01 |
| C[C@@H]1CCCCO[C@@H](CN(C)C(=O)NC2CCCCC2)[C@H](C)CN([C@H](C)CO)C(=O)c2cc(NS(=O)(=O)c3ccc(Cl)cc3)ccc2O1 | inactive: 1.03 |
| CNC[C@@H]1OCCCC[C@H](C)Oc2ccc(NC(=O)Nc3ccc(C(F)(F)F)cc3)cc2C(=O)N([C@@H](C)CO)C[C@@H]1C | inactive: 0.943 |
| Cc1noc(C)c1NC(=O)Nc1ccc2c(c1)C(=O)N([C@H](C)CO)C[C@H](C)[C@@H](CN(C)Cc1ccc(Cl)c(Cl)c1)OCCCC[C@H](C)O2 | inactive: 0.986 |
| N[C@@H](C(=O)O)c1ccc(O)cc1 | inactive: 0.94 |
| CC(C)NC(=O)N(C)C[C@H]1Oc2ccc(NC(=O)Cn3cnnn3)cc2CC(=O)N([C@@H](C)CO)C[C@H]1C | inactive: 0.995 |
| C[C@@H]1CN([C@H](C)CO)C(=O)c2cc(/C=C/c3ccccc3)cnc2O[C@H]1CN(C)C(=O)Nc1ccc(C(F)(F)F)cc1 | inactive: 0.999 |
| O=C(CCNCCO)c1ccccc1 | inactive: 0.952 |
| COc1ccc(CN(C)C[C@H]2OCCCC[C@@H](C)Oc3ccc(NC(=O)Cc4ccccc4)cc3C(=O)N([C@H](C)CO)C[C@@H]2C)cc1 | inactive: 0.995 |
| Cc1ccc(NC(=O)n2c3ccccc3c3ccccc32)cc1 | inactive: 0.991 |
| C[C@@H]1CN([C@H](C)CO)S(=O)(=O)c2ccc(C#C[C@@H](C)O)cc2O[C@@H]1CN(C)C(=O)Cc1ccccn1 | inactive: 1.03 |
| C[C@@H](O)[C@@H](O)[C@@H](O)C/C=N/NC(=O)c1ccc(C(=O)NO)cc1 | inactive: 1.01 |
| C[C@@H]1CCCCO[C@@H](CN(C)C(=O)Nc2ccc3c(c2)OCO3)[C@H](C)CN([C@H](C)CO)C(=O)c2cc(NC(=O)C3CCCCC3)ccc2O1 | inactive: 1.02 |

| SMILES | relative growth |
| --- | --- |
| O=C(NC1CCCCC1)N(CCCl)[NH2+][O-] | inactive: 0.998 |
| C[C@H](CO)N1C[C@H](C)[C@H](CN(C)C(=O)NC2CCCCC2)Oc2ccc(NC(=O)Nc3cccc4ccccc34)cc2CC1=O | inactive: 0.998 |
| [N-]=[N+]=Nc1ccccc1C[C@]1(C(=O)N2CCCCC2)N=C(c2ccc(OCCCO)cc2)O[C@H]1c1ccccc1 | inactive: 0.997 |
| CC(C)NC(=O)N(C)C[C@@H]1Oc2ccc(NC(=O)NC3CCCCC3)cc2C(=O)N([C@H](C)CO)C[C@@H]1C | inactive: 1.01 |
| CN1CCN(C(=O)C[C@H]2CC[C@H](NC(=O)c3ccc4c(c3)OCO4)[C@@H](CO)O2)CC1 | inactive: 0.989 |
| COc1ccc2c3c([nH]c2c1)[C@@H](CO)N(C[C@]13CCN(CC1)C(=O)Nc1cccc(c1)F)C(=O)c1ccc(cc1)F | inactive: 1.03 |
| O=C(C[C@@H]1CC[C@@H]2[C@H](COC[C@H](O)CN2S(=O)(=O)c2ccc(Oc3ccccc3)cc2)O1)NCCN1CCCCC1 | inactive: 0.983 |
| C[C@H]1CCCCO[C@H](CN(C)S(=O)(=O)c2cccs2)[C@@H](C)CN([C@@H](C)CO)C(=O)c2cc(NC(=O)Cc3ccccc3)ccc2O1 | inactive: 0.985 |
| C[C@@H]1CCCCO[C@@H](CN(C)S(=O)(=O)c2cn(C)cn2)[C@H](C)CN([C@@H](C)CO)C(=O)c2cc(NS(=O)(=O)c3ccccc3)ccc2O1 | inactive: 0.991 |
| O=C(C[C@@H]1C[C@H]2c3cc(NC(=O)c4ccc5c(c4)OCO5)ccc3O[C@H]2[C@@H](CO)O1)NCc1ccccn1 | inactive: 1 |
| C[C@@H]1CN([C@@H](C)CO)C(=O)c2c(c3ccccc3n2C)-c2ccccc2CO[C@H]1CN(C)C(=O)NC1CCCCC1 | inactive: 1.01 |
| C[C@@H]1CN([C@H](C)CO)C(=O)c2cc(NS(=O)(=O)c3ccc(F)cc3)ccc2O[C@@H](C)CCCCO[C@H]1CN(C)C(=O)Nc1ccccc1 | inactive: 0.969 |
| C[C@@H]1CN([C@@H](C)CO)C(=O)c2cc(NC(=O)Nc3ccccc3)ccc2O[C@@H](C)CCCCO[C@H]1CN(C)Cc1ccc(C(F)(F)F)cc1 | inactive: 0.998 |
| COc1ccc(CN(C)C[C@H]2Oc3ccc(NS(=O)(=O)c4cn(C)cn4)cc3C(=O)N([C@H](C)CO)C[C@H]2C)cc1 | inactive: 1 |
| CCS(=O)(=O)N1C[C@]2(CCN(CC2)Cc2cccc(c2)OC)c2c([nH]c3cc(ccc23)OC)[C@H]1CO | inactive: 0.988 |
| C[C@H]1CN([C@@H](C)CO)C(=O)CCCn2cc(nn2)CO[C@@H]1CN(C)S(C)(=O)=O | inactive: 1.02 |
| COc1cccc(-c2ccc3c(c2)O[C@H](CN(C)C(=O)C2CC2)[C@@H](C)CN([C@H](C)CO)S3(=O)=O)c1 | inactive: 1.02 |
| COc1ccc(COC[C@]23N=C4SCCCN4[C@H](c4ccccc4O2)[C@H]3CO[Si](C)(C)C(C)(C)C)cc1 | inactive: 0.749 |
